Laboratory results taken from PubChem BioAssay AID1030 (National Center for Advancing Translational Sciences (NCATS), 2008).
Hit rate of the full screen: of about 220,000 compounds, about 16,000 (7.3%) were called active. The inconclusive results got no clear call from the source; some entries with a clear call stand among them for comparison. Calls come from the whole dose curve; as a rule, active = well fitted inhibition curve with a large enough effect (not every such curve was filed as active); inconclusive = small, poorly fitted or top-dose-only effect, or another doubt; inactive = no such curve, though single readings can be large or run the other way. No potency is given beside an inconclusive call; the fits are too rough.

Target: Aldehyde dehydrogenase 1A1 (Homo sapiens) (UniProt P00352)
Experiment: qHTS Assay for Inhibitors of Aldehyde Dehydrogenase 1 (ALDH1A1);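 for activity, negative = inhibition: plate controls were no enzyme wells and a reference inhibitor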
Conditions: Purified ALDH1A1, NADH fluorescence, propionaldehyde substrate; series mostly up to 75.3 µM; activity, negative = inhibition: at the top concentration
Potency is the fitted concentration of half-maximal effect; tags give direction and shape of the fitted curve.

UniProt P00352, sequence (P00352 whole entry, looked up): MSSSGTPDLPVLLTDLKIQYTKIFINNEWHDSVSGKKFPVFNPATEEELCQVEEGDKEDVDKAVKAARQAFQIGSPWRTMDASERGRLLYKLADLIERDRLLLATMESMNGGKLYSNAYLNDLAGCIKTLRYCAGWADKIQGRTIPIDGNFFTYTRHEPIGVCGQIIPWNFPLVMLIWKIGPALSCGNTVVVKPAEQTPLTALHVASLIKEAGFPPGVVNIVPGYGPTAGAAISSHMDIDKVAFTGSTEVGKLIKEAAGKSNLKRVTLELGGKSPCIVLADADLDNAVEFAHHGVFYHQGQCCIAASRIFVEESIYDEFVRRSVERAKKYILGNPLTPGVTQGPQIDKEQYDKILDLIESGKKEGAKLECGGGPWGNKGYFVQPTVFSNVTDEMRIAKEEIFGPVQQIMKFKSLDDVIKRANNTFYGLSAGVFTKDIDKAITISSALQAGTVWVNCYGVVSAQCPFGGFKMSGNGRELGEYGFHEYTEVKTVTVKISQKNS

Row | Compound | Potency | activity, negative = inhibition
1 | Cc1cc(NC(=O)C2CCCC2)n(-c2nc3ccccc3[nH]2)n1 | inconclusive [inhibitor, single point] | 
2 | CCOn1c(SCC)nc2ccccc2c1=O | inconclusive [inhibitor, partial curve] | 
3 | CN1/C(=C\C(=O)COC(=O)c2ccc(O)c(O)c2)C(C)(C)c2ccccc21 | inconclusive [inhibitor, single point] | 
4 | CCOc1cc(/C=N/NS(=O)(=O)c2ccccc2)ccc1OS(=O)(=O)c1ccc(C)cc1 | active: 8.91 µM | 
5 | COc1cccc(N2CCN(C(=S)NCc3ccco3)CC2)c1 |  | inactive: -16.5%
6 | C=CCOC(=O)C1(C(NC(=O)OC)c2ccccc2)C(=O)Cc2ccccc21 (centres undefined) | active: 4.47 µM | 
7 | CC1CC(C)CN(S(=O)(=O)c2ccc(C(=O)NCCCn3ccnc3)cc2)C1 (centres undefined) |  | inactive: 1.45%
8 | FC(F)(F)c1nc2ccccc2n2c(-c3ccc(Cl)cc3)nnc12 | inconclusive [inhibitor, single point] | 
9 | NC(=S)N/N=C/c1ccc(C(F)(F)F)cc1 |  | inactive: 19.6%
10 | COc1ccc(C2CC23N=C(c2ccccc2)OC3=O)cc1 (centres undefined) | inconclusive [inhibitor, single point] | 
11 | Cc1nn2c3ccccc3nc2c2ccccc12 | inconclusive [inhibitor, single point] | 
12 | Cc1ccc(-c2nn(-c3ccccc3)c3[nH]c(=O)c(CNCc4ccccc4)cc23)cc1 | inconclusive [inhibitor, partial curve] | 
13 | Cc1nn(C)c2nc(-c3cccs3)cc(C(F)(F)F)c12 | inconclusive [inhibitor, partial curve] | 
14 | O=C1CCCCCN1Cc1nnc(SCc2nc3ccccc3s2)n1-c1ccccn1 | inconclusive [inhibitor, full curve] | 
15 | COC(=O)[C@H]1O[C@@H](c2cc(OC)c(C)c(OC)c2OCc2ccccc2)[C@H](C)[C@H]2O[C@@]12C | inactive | 
16 | O=c1c(-c2ccccc2)nc2cnc(N3CCOCC3)nc2n1-c1ccccc1 | inconclusive [inhibitor, partial curve] | 
17 | CC(C)N1CCc2c(sc(NC(=O)c3nc4ccccc4s3)c2C(N)=O)C1 | inconclusive [inhibitor, single point] | 
18 | CCc1nnc(NC(=O)c2ccc(-c3cccc(C(F)(F)F)c3)o2)s1 | inconclusive [inhibitor, single point] | 
19 | O=C(O)c1ccccc1-c1ccccc1C(=O)Nc1nc2ccccc2s1 | inconclusive [inhibitor, single point] | 
